# The supplement of paper PMC12217912
# The list shows a part of the results. The full chains were built here from the parent and the listed change. Inactive controls read about 0.05.
# B1: TEV protease; numbered along this chain (parent)
# chain: MGESLFKGPRDYNPISSSICHLTNESDGHTTSLYGIGFGPFIITNKHLFRRNNGTLVVQSLHGVFKVKDTTTLQQHLVDGRDMIIIRMPKDFPPFPQKLKFREPQREERICLVTTNFQTKSMSSMVSDTSCTFPSGDGIFWKHWIQTKDGQCGSPLVSTRDGFIVGIHSASNFTNTNNYFTSVPKNFMELLTNQEAQQWVSGWRLNADSVLWGGHKVFMVKPEEPFQPVKEATQL
# Variants of: B1
# Test: raw area under fraction-flipped curve 0-4 h after induction (AUC4h, not background-subtracted), DNA-recorder readout of cleavage of the substrate (dimensionless); higher = more cleavage of the substrate by the protease variant
# Conditions: temperature: 34 °C; time window: 0-4 h after rhamnose induction
# Protocol: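 In vivo DNA recorder in E. coli TOP10(DE3) ΔrhaA at 34 °C. Each TEVp single-site mutant (parent TEVp 0) is paired with a single-site variant of the 7-mer TEVs (canonical ENLYFQ|S). The substrate sits between flexible linkers in a Bxb1-sfGFP-TEVs-SsrA fusion, so cleavage stabilises Bxb1 and speeds flipping of a recombination array, read by NGS. The value is the raw area under the fraction-flipped curve over 0-4 h after rhamnose induction (AUC4h), with ≥20 reads per time point. It is not background-subtracted; inactive controls average about 0.047.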
# 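Also: Bxb1 expression induced with 0.2% (w/v) L-rhamnose at OD600 near 0.5, cultures sampled hourly, flipped fraction per protease–substrate barcode pair counted by paired-end Illumina sequencing.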
Variant,area with substrate ENLAFQS,area with substrate ENLDFQS,area with substrate ENLEFQS,area with substrate ENLFFQS,area with substrate ENLHFQS,area with substrate ENLKFQS,area with substrate ENLMFQS,area with substrate ENLNFQS,area with substrate ENLPFQS,area with substrate ENLQFQS,area with substrate ENLRFQS,area with substrate ENLSFQS,area with substrate ENLWFQS,area with substrate ENLCFQS,area with substrate ENLIFQS,area with substrate ENLLFQS,area with substrate ENLGFQS,area with substrate ENLVFQS,area with substrate ENLTFQS
W203N,0.067,0.0568,0.0563,0.0549,0.0674,0.0657,0.0654,0.0617,0.0507,0.0451,0.0554,0.0404,0.0493,,,,,,
P9F,,0.0707,0.0643,0.0755,0.0609,0.0601,0.0557,0.0594,0.0523,0.0769,0.0699,,0.0807,0.0612,0.0629,0.0698,,,
W199N,0.0636,0.0673,0.0625,0.0677,0.0492,,0.0692,0.0619,,0.0727,,0.0713,0.0494,,0.0388,0.0972,0.0691,0.054,
W199E,0.0637,0.0639,0.0629,0.0612,0.058,0.0633,0.0595,0.074,0.0639,0.059,,0.05,0.0869,0.0598,0.0342,0.0634,0.0609,0.0771,0.0566
Q194F,0.0649,,,0.066,0.0668,0.0644,,0.0506,0.0569,,0.062,0.056,,0.0855,,,,,
L190Y,0.0589,0.0752,0.0571,0.0769,0.0693,0.15,,0.0643,0.0534,,,0.0775,0.0783,0.0741,0.0701,0.052,0.0455,,0.073
V217P,0.0609,0.0632,0.0636,0.061,0.0617,0.0604,,0.0651,0.0623,,,0.0777,,0.0598,,,,0.0507,
V217C,0.0248,0.0627,0.064,0.0826,0.0709,0.0689,0.0796,0.0681,0.0536,0.0651,0.0868,0.0652,0.0527,0.0417,0.0922,,0.0607,0.079,0.0738
V229C,0.102,0.0645,0.0646,0.0732,0.0743,0.0938,0.0781,,0.06,0.0641,0.0603,0.062,,,0.0786,0.0653,0.0678,0.0814,0.0821
V220W,0.0599,0.0675,0.0741,0.116,0.0604,0.0746,,0.0661,0.055,0.0911,0.0715,0.0488,0.0706,0.0667,0.0603,0.0664,,,0.0546
V220M,0.0598,0.0531,,0.0886,0.073,0.082,0.0564,,0.048,,0.0742,,,,0.0815,,,,0.0721
S17A,,0.0669,0.0774,0.0862,0.0668,0.0941,,0.0737,,,0.0748,0.0611,0.0662,0.0694,,0.0673,,,
